{"source": "PubChem BioAssay AID624417", "about": "(National Center for Advancing Translational Sciences (NCATS), 2012)", "note": "The campaign covered roughly 410,000 compounds. About 6,400 (1.6%) were called active. Inconclusive means that the source gave no clear call. Such entries were picked first, then a sample of the others. Calls follow the shape of the dose curve; as a rule, active = well fitted inhibition curve with a large enough effect; inconclusive = small, poorly fitted or top-dose-only effect; inactive = no such curve, though single readings can be large or run the other way. Potencies of inconclusive entries are left out as doubtful fits. % is scaled to controls: 0 for no effect and ±100 for the full control effect; potency is read from the fitted curve at half-maximal effect; tags tell the direction and shape of the fitted curve."}
{"molecular_target": "Glucagon-like peptide 1 receptor (Homo sapiens) (UniProt P43220)", "sequence (P43220 whole entry, looked up)": "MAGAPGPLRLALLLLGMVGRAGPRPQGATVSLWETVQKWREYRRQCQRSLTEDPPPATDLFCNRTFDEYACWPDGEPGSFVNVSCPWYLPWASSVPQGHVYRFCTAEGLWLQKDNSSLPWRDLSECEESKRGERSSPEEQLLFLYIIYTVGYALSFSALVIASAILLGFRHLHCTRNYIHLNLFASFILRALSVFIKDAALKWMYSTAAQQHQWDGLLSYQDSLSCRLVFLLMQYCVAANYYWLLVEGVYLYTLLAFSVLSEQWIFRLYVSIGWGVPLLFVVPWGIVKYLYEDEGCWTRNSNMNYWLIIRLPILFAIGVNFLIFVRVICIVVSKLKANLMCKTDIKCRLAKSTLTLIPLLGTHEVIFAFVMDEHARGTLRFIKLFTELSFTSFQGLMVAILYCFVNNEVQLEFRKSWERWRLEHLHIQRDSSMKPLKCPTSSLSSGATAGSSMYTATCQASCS", "test": "qHTS of GLP-1 Receptor Inverse Agonists (Inhibition Mode); also: nearly all actives have a fitted effect of over 55% in size", "conditions": "HEK293 GLP-1R CRE-luciferase, luminescence, 24 h, GLP-1R form is constitutively active; activity change, negative = inhibition: at 38.3 µM (top of the series) unless noted", "outline": "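HEK293 cells stably co-expressing a cAMP-responsive luciferase reporter and constitutively active GLP-1R were seeded, incubated 12 h, then exposed to compounds for 24 h at 37 C. Luminescence was read 12 min after detection reagent; inverse agonists lower signal.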"}
{"smiles": "Cc1ccc2oc(=O)n(Cc3ccccc3)c2c1", "Potency": "inconclusive [inhibitor, partial curve, poor fit]"}
{"smiles": "C=CCNC(=S)Nc1cc(C)ccn1", "Potency": "active: 10 µM"}
{"smiles": "Cc1ccc(C)c(-n2c3nc(=O)[nH]c(=O)c-3cc3cc([N+](=O)[O-])ccc32)c1", "Potency": "inconclusive [inhibitor, full curve, poor fit]"}
{"smiles": "O=C1[C@@H](c2ccccc2)[C@@H](c2ccccc2)N1c1cccnc1", "Potency": "inconclusive [inhibitor, single point]"}
{"smiles": "Cc1sc2nc(CN(C(=O)c3cccs3)C3CCCC3)[nH]c(=O)c2c1C", "Potency": "inconclusive [inhibitor, partial curve, poor fit]"}
{"smiles": "CSc1cccc(NC(=O)CN2C(=O)COc3ccc(S(=O)(=O)N4CCC(C)CC4)cc32)c1", "Potency": "inconclusive [inhibitor, single point]"}
{"smiles": "COc1ccccc1Cc1c(C2CCCCC2)nc2ccc(C)cn12", "Potency": "inconclusive [inhibitor, single point]"}
{"smiles": "COc1ccccc1CNC(=O)CCn1c(=O)[nH]c2ccsc2c1=O", "activity change, negative = inhibition": "inactive: 0%"}
{"smiles": "COc1cccc(NC(=O)C2(C)CCN2Cc2ccccc2Cl)c1", "note": "(stereo unspecified)", "Potency": "inconclusive [inhibitor, partial curve, poor fit]"}
{"smiles": "CCOC(=O)Cc1csc(NC(=O)c2cnc3sc(C)cn3c2=O)n1", "activity change, negative = inhibition": "inactive: 23.1%"}
{"smiles": "Cc1ccc(S(=O)(=O)N2CCC(C(=O)OCC(=O)N(C)CC(=O)Nc3ccc(F)cc3)CC2)cc1C", "activity change, negative = inhibition": "inactive: -29.6%"}
{"smiles": "Cn1c(=O)c2c(SCC(=O)Nc3ccc(F)cc3F)nc(C3CCCC3)nc2n(C)c1=O", "activity change, negative = inhibition": "inactive: 11.4%"}
{"smiles": "CCOC(=O)C1Cn2c(nc3c(c2=O)C2(CCCC2)Cc2ccccc2-3)S1", "note": "(stereo unspecified)", "Potency": "inconclusive [inhibitor, partial curve, poor fit]"}
{"smiles": "CCOC(=O)c1c(NC(=O)C2C3C=CC(C3)C2C(=O)O)sc2c1CCCC2", "note": "(stereo unspecified)", "Potency": "inconclusive [inhibitor, partial curve, poor fit]"}
{"smiles": "CCC(=O)OC1(C)C(=O)C2=COC(c3ccc(OC)cc3)=CC2=C(Br)C1=O", "note": "(stereo unspecified)", "activity change, negative = inhibition": "inactive: 2.2%"}
{"smiles": "Cc1ccc(S(=O)(=O)NCc2ccccc2)cc1C(=O)NC1CCC(C)CC1", "note": "(stereo unspecified)", "Potency": "inconclusive [inhibitor, single point]"}
{"smiles": "CCc1ccc(NC(=O)NC(C)c2ccc3c(c2)OCO3)cc1", "note": "(stereo unspecified)", "Potency": "inconclusive [inhibitor, partial curve, poor fit]"}
{"smiles": "COc1ccc(Nc2ccnc(Nc3ccc(OC)cc3)n2)cc1", "Potency": "inconclusive [inhibitor, single point]"}
{"smiles": "S=c1[nH]nc(-c2ccccc2)n1/N=C/C=C/c1ccco1", "activity change, negative = inhibition": "inactive: -0.92%"}
{"smiles": "COc1nnc(-c2ccc(N3CCCCC3)c(NC(=O)COc3ccccc3)c2)c2ccccc12", "Potency": "inconclusive [inhibitor, single point]"}
{"smiles": "CC(=O)OC[C@@H]1CN(Cc2cccc(C(F)(F)F)c2)C[C@H](n2cnc3c(NCc4ccco4)ncnc32)O1", "Potency": "inconclusive [inhibitor, single point]"}
{"smiles": "CCc1ccc(CN(C)C(=O)C2CCC(=O)N(CC3CCCCC3)C2)cc1", "note": "(stereo unspecified)", "Potency": "inconclusive [inhibitor, single point]"}
{"smiles": "O=C(c1ccc(Oc2ccc(Cl)cc2)c([N+](=O)[O-])c1)N1CCCC1", "Potency": "inconclusive [inhibitor, partial curve, poor fit]"}
{"smiles": "CCCCNC(=S)NNC(=O)c1csc(C(C)C)c1", "Potency": "inconclusive [inhibitor, partial curve, poor fit]"}
{"smiles": "CCOC(=O)C1=C(c2ccccc2)NC(=O)NC1c1cc(Br)c(O)c(OC)c1", "note": "(stereo unspecified)", "Potency": "inconclusive [inhibitor, partial curve, poor fit]"}
{"smiles": "Cc1cccc(C(=O)Nc2nc(-c3nnn(-c4cc(C)ccc4C)c3C)ns2)c1", "Potency": "inconclusive [inhibitor, full curve]"}
{"smiles": "O=C(CNC(=O)c1ccccc1F)N/N=C/c1cc(Br)ccc1OC(=O)/C=C/c1ccco1", "Potency": "inconclusive [inhibitor, full curve, poor fit]"}
{"smiles": "CC(C)CCc1noc(CN(CC2CCC2)CC2CCCO2)n1", "note": "(stereo unspecified)", "Potency": "inconclusive [inhibitor, single point]"}
{"smiles": "Oc1ccc(Br)c(CN2CCN(c3ncc(Cc4ccccc4)cn3)CC2)c1", "Potency": "inconclusive [inhibitor, single point]"}
{"smiles": "Cc1cc(C)n(-c2nc(Nc3ccccc3)nc(-n3nc(C)cc3C)n2)n1", "activity change, negative = inhibition": "inactive: -17.9%"}
{"smiles": "C=CCn1c(SCc2nc3scc(-c4ccccc4)c3c(=O)[nH]2)nnc1-c1ccccc1F", "Potency": "inconclusive [inhibitor, partial curve, poor fit]"}
{"smiles": "Cn1c(=O)c2c(nc(N3CCN(Cc4ccccc4)CC3)n2CC(=O)c2ccccc2)n(C)c1=O", "activity change, negative = inhibition": "inactive: 0%"}
{"smiles": "Cc1cccc(/C(N)=N/OC(=O)Cc2cccc3ccccc23)c1", "Potency": "inconclusive [inhibitor, single point]"}
{"smiles": "COc1cccc(NC(=S)NCc2ccc3c(c2)cc(C)n3C)c1", "Potency": "inconclusive [inhibitor, single point]"}
{"smiles": "Cc1ccc(-c2nn(-c3ccccc3)cc2C(=O)NCC(c2cccs2)N2CCOCC2)cc1", "note": "(stereo unspecified)", "Potency": "inconclusive [inhibitor, partial curve, poor fit]"}
{"smiles": "CN(c1ccccc1)S(=O)(=O)c1ccc(Cl)c(C(=O)NCCc2c[nH]c3ccccc23)c1", "Potency": "inconclusive [inhibitor, partial curve, poor fit]"}
{"smiles": "Cn1c(=O)c2[nH]c(Nc3ccccc3)nc2n(C)c1=O", "Potency": "inconclusive [inhibitor, single point]"}
{"smiles": "COc1ccc(CNC(C)C23CC4CC(CC(C4)C2)C3)c(OC)c1OC", "note": "(stereo unspecified)", "Potency": "inconclusive [inhibitor, partial curve, poor fit]"}
{"smiles": "Brc1cccc(-c2nc3c4ccccc4ccn3c2Cc2ccsc2)c1", "Potency": "inconclusive [inhibitor, partial curve, poor fit]"}
{"smiles": "COc1ccc(-c2ccc(CCC(=O)O)n2-c2cc(Cl)ccc2O)cc1", "Potency": "inconclusive [inhibitor, single point]"}
{"smiles": "O/N=C(/c1ccc(Cl)cc1)C1CC1c1ccccc1", "note": "(stereo unspecified)", "Potency": "inconclusive [inhibitor, partial curve, poor fit]"}
{"smiles": "COc1ccc(NC(=O)CN(C)C(=O)c2cc3c(s2)CCC(C)C3)cc1", "note": "(stereo unspecified)", "Potency": "inconclusive [inhibitor, single point]"}
{"smiles": "O=C(Cn1c(=O)n(Cc2nc(-c3ccccc3)no2)c(=O)c2cc3c(cc21)OCO3)Nc1cccc(C(F)(F)F)c1", "activity change, negative = inhibition": "inactive: 9.86%"}
{"smiles": "Cc1ncc(CN2CCCC(C(=O)Nc3ccc(-c4cccc(F)c4)cc3)C2)n1C", "note": "(stereo unspecified)", "Potency": "inconclusive [inhibitor, partial curve, poor fit]"}
{"smiles": "O/N=C(\\c1ccc2c(c1)OCCO2)C1CCCCC1", "Potency": "inconclusive [inhibitor, partial curve, poor fit]"}
{"smiles": "Cc1cccc(CNC(=O)Cn2ccc3cc(S(=O)(=O)N4CCC(C)CC4)ccc32)c1", "Potency": "inconclusive [inhibitor, single point]"}
{"smiles": "CCC(Sc1nc(C)cc(C)n1)C(=O)NC1=NN=C(c2ccc(C)cc2)CS1", "note": "(stereo unspecified)", "Potency": "inconclusive [inhibitor, single point]"}
{"smiles": "O=C(COC(=O)/C=C/c1ccccc1)NCCc1ccc(F)cc1", "Potency": "inconclusive [inhibitor, single point]"}
{"smiles": "CC(OC(=O)CC(C)c1ccccc1)C(=O)Nc1ccc(Cl)cn1", "note": "(stereo unspecified)", "Potency": "inconclusive [inhibitor, single point]"}
{"smiles": "Cc1ccccc1C(=O)N1CCN(c2ccc(NC(=S)NC(=O)c3ccco3)cc2)CC1", "Potency": "inconclusive [inhibitor, full curve, poor fit]"}
{"smiles": "Cc1ccc(NC(=O)c2cc(=O)c3ccccc3o2)cc1S(=O)(=O)N1CCCCC1", "Potency": "inconclusive [inhibitor, partial curve, poor fit]"}
{"smiles": "COc1ccc(N(CC(=O)N/N=C/c2ccc(N(C)C)cc2)S(=O)(=O)c2ccccc2)cc1", "Potency": "inconclusive [inhibitor, full curve, poor fit]"}
{"smiles": "COc1cc(SC)ccc1C(=O)Nc1ccc(OCC(=O)N2CCOCC2)cc1", "activity change, negative = inhibition": "inactive: -23.3%"}
{"smiles": "Cc1ccc(NC(=O)C(C)N2CCc3ccccc3C2)cc1", "note": "(stereo unspecified)", "Potency": "inconclusive [inhibitor, single point]"}
{"smiles": "COC(=O)c1ccccc1NC(=O)C1CCCN(S(=O)(=O)c2ccc(F)cc2)C1", "note": "(stereo unspecified)", "Potency": "inconclusive [inhibitor, single point]"}
{"smiles": "CCOC(=O)Cn1c(=O)c(F)cn(Cc2ccc(OC)c([N+](=O)[O-])c2)c1=O", "activity change, negative = inhibition": "inactive: 5.29%"}
{"smiles": "COc1ccc(CN2CCCC(C(=O)c3ccc(Cl)cc3)C2)cc1Cn1cncn1", "note": "(stereo unspecified)", "Potency": "inconclusive [inhibitor, single point]"}
{"smiles": "O=C1C2C3C=CC(C3=C(c3ccccc3)c3ccccc3)C2C(=O)N1Cc1ccccc1", "note": "(stereo unspecified)", "Potency": "inconclusive [inhibitor, partial curve]"}
{"smiles": "COCCCNC(=O)c1cccc2c(-c3ccc(O)c(OC)c3)coc12", "activity change, negative = inhibition": "inactive: -6.91%"}
{"smiles": "COc1ccc(-c2csc(NC3OC(=O)c4c3ccc(OC)c4OC)n2)cc1OC", "note": "(stereo unspecified)", "Potency": "inconclusive [inhibitor, single point]"}
{"smiles": "COc1ccc(NC(=O)C(c2ccc(OC)cc2)n2c(=O)c(-c3ccco3)nc3ccccc32)cc1", "note": "(stereo unspecified)", "Potency": "inconclusive [inhibitor, single point]"}
